This is an account of results in the supplement of paper PMC10338343.

± gives the standard deviation. This is a selection; strong and weak results do not stand in their true shares.

For one assay, the system named is MIWI (PIWIL1) piRISC loaded with L1MC piRNA (30 nt). Put plainly: pre-steady-state target cleavage rate (min^-1); MIWI and MILI are mouse PIWI proteins and EfPiwi is from a freshwater sponge; tags in brackets are library labels; higher = faster piRNA-guided slicing of the target. Particulars: guide: L1MC piRNA 5'p-UAACUAAAUACUAUGCAAGCUGUAGGUCCU; auxiliary factor: 500 nM mouse GTSF1. In short, it runs like this: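 The pre-steady-state cleavage rate came from a burst-and-steady-state fit to pooled data from three Cleave-'n-Seq trials, in which uncleaved targets were sequenced and normalised to depth and to weakly complementary targets. Each reaction held 0.1 nM transcribed, DNA-blocked target RNA library and 1 nM active affinity-purified piRISC carrying one synthetic guide, with or without 500 nM GTSF1 partner protein, in HEPES–potassium acetate buffer at 33 °C for 0–8 or 0–960 min. k3 was capped at 0.0001 min^-1.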
Turning to AGGUCCUACAGCUUGCAUUGUAUUUAGUUA, the “pre-steady-state target cleavage rate” value turned out to be 0.833 ± 0.057.

Turning to UCGACCUUACAGCUUGCAUAGUAUUUAGUUA, the “pre-steady-state target cleavage rate” value came to 1.47 ± 0.057.

As for UCGACCAUCAGCUUGCAUAGUAUUUAGUAA, the “pre-steady-state target cleavage rate” value is 0.904 ± 0.048.

Take UCCUGCUACAGCUUGCAGAGUAUUUAGUUA: the “pre-steady-state target cleavage rate” value worked out at 1.13 ± 0.12.

Regarding UCCUGGAACAGCUUGCUAAGUAUUUAGUUA, the “pre-steady-state target cleavage rate” value is 0.0878 ± 0.01.

In the case of AGGACGUACAGCUUGCAUAGUAUUUAGAUA, the “pre-steady-state target cleavage rate” value was determined as 0.414 ± 0.05.

Consider UCCACCUACAGCUUGCAUAGAAUUUAGUUA, for which the “pre-steady-state target cleavage rate” value turned out to be 0.469 ± 0.049.

For UCCACCAACAGCUUGGAUAGUAUUUAGUUA, the “pre-steady-state target cleavage rate” value turned out to be 1.36 ± 0.056.

In the case of UCCAGGUACAGCUUGCAUAGUAUUUAGAAA, the “pre-steady-state target cleavage rate” value stood at 0.261 ± 0.032.

UGGACCAUGAGCUUGCAUAGUAUUUACAAA: the “pre-steady-state target cleavage rate” value turned out to be 0.159 ± 0.021.

With UCCUCCUACAGCUUGCAUAGUAUUUAGUAA, the “pre-steady-state target cleavage rate” value was 0.763 ± 0.047.

Turning to UGGACCUACAGCUAGCAUAGUAAUUAGUUA, the “pre-steady-state target cleavage rate” value came out at 0.89 ± 0.057.

UGCUGCUACAGCUUGCAUAGUAUUUAGAAA: the “pre-steady-state target cleavage rate” value is 0.255 ± 0.035.

As to UCCUGCUACAGCUUGCUUAGUAUUUAGAUA, the “pre-steady-state target cleavage rate” value stood at 0.126 ± 0.022.

Turning to UCCUCCUACAGCUUGCAUAGUAUUUAUUUA, the “pre-steady-state target cleavage rate” value came out at 0.382 ± 0.029.

Take UGGACCUACAGCUUGCAUAGUAUUUUCUAA: the “pre-steady-state target cleavage rate” value was 0.183 ± 0.029.

Consider UGGACCUACAGCUUGCAUACUAAUUAGUUA, for which the “pre-steady-state target cleavage rate” value was determined as 0.154 ± 0.01.

For the sequence UCCUCCUACAGCUUGCAUAGUAUAUUGUUA, the “pre-steady-state target cleavage rate” value was found to be 0.368 ± 0.033.

For UCCUGGUACAGGUUGCAUAGUAUUUAGAUA, the “pre-steady-state target cleavage rate” value was found to be 0.467 ± 0.086.

With UCCUGGUACAGCUUCCUUAGUAUUUAGUUA, the “pre-steady-state target cleavage rate” value is 0.279 ± 0.047.

As for UCCUGGUACAGCUUGCAUAGUAUAUAGAUA, the “pre-steady-state target cleavage rate” value is 0.17 ± 0.044.

Consider UCCACCUAGAGCUUGCAUAGAAUUUAGUUA, for which the “pre-steady-state target cleavage rate” value turned out to be 0.433 ± 0.059.

Turning to AGGACCUACAGCUUGCUAAGUAUUUAGUUA, the “pre-steady-state target cleavage rate” value turned out to be 0.317 ± 0.029.

As to UCCUGGAUGUGCUUGCAUAGUAUUUGAGUUA, the “pre-steady-state target cleavage rate” value was found to be 0.157 ± 0.02.

On to UCCUGGAACACCUUGCAUACUAUUUAGUUA, for which the “pre-steady-state target cleavage rate” value is 0.131 ± 0.021.

In the case of AGGACCUACAGCUUGCUUACUAUUUAGUUA, the “pre-steady-state target cleavage rate” value stood at 0.461 ± 0.026.

Take UCCUGGUACAGCUUGCCUAGUAUUUAGUUA: the “pre-steady-state target cleavage rate” value was 0.687 ± 0.064.

As for UCCUCCUACAGCUUGCAUAGAAUAUAGUUA, the “pre-steady-state target cleavage rate” value was found to be 0.289 ± 0.029.

For UGGUCCUACAGCUUGCAUAGUAAUUAGUUA, the “pre-steady-state target cleavage rate” value was 0.68 ± 0.034.

On to UCCUGGUACAGCUUCGCAUAGUAUUUAGUUA, for which the “pre-steady-state target cleavage rate” value was 0.686 ± 0.046.

For UCCUGGUACAGCUUGGUUAGUAUUUAGUUA, the “pre-steady-state target cleavage rate” value is 0.606 ± 0.042.

On to AGGACCUACACCUUGCAUAGUUUUUAGUUA, for which the “pre-steady-state target cleavage rate” value is 0.299 ± 0.028.

Consider UCGACCUAGUGCUUGCAUAGUAUUUAGUAA, for which the “pre-steady-state target cleavage rate” value worked out at 0.472 ± 0.034.

With AGGAGGUACAGCUUGCAUAGUAUUUACAAA, the “pre-steady-state target cleavage rate” value stood at 0.277 ± 0.056.

As to UCCUGGAUGUGCUUGCUUAGUAUAUAGUUA, the “pre-steady-state target cleavage rate” value came to 0.0109 ± 0.0032.

As for UCCUCCAACAGCUUGCAUAGUAUAUAGUUA, the “pre-steady-state target cleavage rate” value worked out at 0.595 ± 0.037.

Take UCGGACCUACAGCUUGCAUAGUAUUUAGUUA: the “pre-steady-state target cleavage rate” value turned out to be 1.37 ± 0.097.

As for UCCUGCUACAGCUUGCUUAGUAUUUAGUUA, the “pre-steady-state target cleavage rate” value came to 0.987 ± 0.056.

Turning to UCGAGGUACAGCUUGCAUAGUAUUUAGAAA, the “pre-steady-state target cleavage rate” value stood at 0.257 ± 0.034.

For the sequence UCCUGCUACAGCUUUGCAUAGUAUUUAGUUA, the “pre-steady-state target cleavage rate” value is 0.698 ± 0.045.

Staying with this assay, now noted: guide: L1MC piRNA 5'p-UAACUAAAUACUAUGCAAGCUGUAGGUCCU; auxiliary factor: none (no GTSF1).
For AGGUCCUACAGCUUGCAUUGUAUUUAGUUA, the “pre-steady-state target cleavage rate” value worked out at 0.0393 ± 0.0083.

On to UCGACCUUACAGCUUGCAUAGUAUUUAGUUA, for which the “pre-steady-state target cleavage rate” value is 0.091 ± 0.02.

Turning to UCGACCAUCAGCUUGCAUAGUAUUUAGUAA, the “pre-steady-state target cleavage rate” value was determined as 0.0427 ± 0.0068.

Turning to UCCUGCUACAGCUUGCAGAGUAUUUAGUUA, the “pre-steady-state target cleavage rate” value was determined as 0.0228 ± 0.0065.

As for UCCUGGAACAGCUUGCUAAGUAUUUAGUUA, the “pre-steady-state target cleavage rate” value turned out to be 0.00736 ± 0.003.

Regarding AGGACGUACAGCUUGCAUAGUAUUUAGAUA, the “pre-steady-state target cleavage rate” value turned out to be 0.0345 ± 0.0073.

As to UCCACCUACAGCUUGCAUAGAAUUUAGUUA, the “pre-steady-state target cleavage rate” value turned out to be 0.0176 ± 0.0053.

On to UCCACCAACAGCUUGGAUAGUAUUUAGUUA, for which the “pre-steady-state target cleavage rate” value came to 0.0553 ± 0.01.

Take UCCAGGUACAGCUUGCAUAGUAUUUAGAAA: the “pre-steady-state target cleavage rate” value came to 0.00791 ± 0.002.

Take UGGACCAUGAGCUUGCAUAGUAUUUACAAA: the “pre-steady-state target cleavage rate” value came out at 0.00423 ± 0.0026.

In the case of UCCUCCUACAGCUUGCAUAGUAUUUAGUAA, the “pre-steady-state target cleavage rate” value was determined as 0.0421 ± 0.011.

In the case of UGGACCUACAGCUAGCAUAGUAAUUAGUUA, the “pre-steady-state target cleavage rate” value is 0.00994 ± 0.003.

In the case of UGCUGCUACAGCUUGCAUAGUAUUUAGAAA, the “pre-steady-state target cleavage rate” value was 0.00391 ± 0.002.

On to UCCUGCUACAGCUUGCUUAGUAUUUAGAUA, for which the “pre-steady-state target cleavage rate” value came to 0.0072 ± 0.0023.

In the case of UCCUCCUACAGCUUGCAUAGUAUUUAUUUA, the “pre-steady-state target cleavage rate” value was 0.0175 ± 0.003.

On to UGGACCUACAGCUUGCAUAGUAUUUUCUAA, for which the “pre-steady-state target cleavage rate” value came out at 0.00653 ± 0.0027.

Turning to UGGACCUACAGCUUGCAUACUAAUUAGUUA, the “pre-steady-state target cleavage rate” value was found to be 0.00958 ± 0.0024.

Regarding UCCUCCUACAGCUUGCAUAGUAUAUUGUUA, the “pre-steady-state target cleavage rate” value was determined as 0.0145 ± 0.0039.

UCCUGGUACAGGUUGCAUAGUAUUUAGAUA: the “pre-steady-state target cleavage rate” value was determined as 0.00768 ± 0.0027.

For the sequence UCCUGGUACAGCUUCCUUAGUAUUUAGUUA, the “pre-steady-state target cleavage rate” value was found to be 0.00407 ± 0.002.

Consider UCCUGGUACAGCUUGCAUAGUAUAUAGAUA, for which the “pre-steady-state target cleavage rate” value came out at 0.00548 ± 0.0035.

As for UCCACCUAGAGCUUGCAUAGAAUUUAGUUA, the “pre-steady-state target cleavage rate” value amounted to 0.0118 ± 0.0026.

For AGGACCUACAGCUUGCUAAGUAUUUAGUUA, the “pre-steady-state target cleavage rate” value was determined as 0.00438 ± 0.0022.

With UCCUGGAUGUGCUUGCAUAGUAUUUGAGUUA, the “pre-steady-state target cleavage rate” value was 0.0219 ± 0.0046.

Turning to UCCUGGAACACCUUGCAUACUAUUUAGUUA, the “pre-steady-state target cleavage rate” value was found to be 0.00558 ± 0.0024.

Consider AGGACCUACAGCUUGCUUACUAUUUAGUUA, for which the “pre-steady-state target cleavage rate” value was 0.0147 ± 0.0035.

Consider UCCUGGUACAGCUUGCCUAGUAUUUAGUUA, for which the “pre-steady-state target cleavage rate” value is 0.0341 ± 0.0081.

For the sequence UCCUCCUACAGCUUGCAUAGAAUAUAGUUA, the “pre-steady-state target cleavage rate” value worked out at 0.00715 ± 0.0024.

Regarding UGGUCCUACAGCUUGCAUAGUAAUUAGUUA, the “pre-steady-state target cleavage rate” value came out at 0.0288 ± 0.0053.

With UCCUGGUACAGCUUCGCAUAGUAUUUAGUUA, the “pre-steady-state target cleavage rate” value worked out at 0.00964 ± 0.0031.

Turning to UCCUGGUACAGCUUGGUUAGUAUUUAGUUA, the “pre-steady-state target cleavage rate” value is 0.0136 ± 0.003.

As for AGGACCUACACCUUGCAUAGUUUUUAGUUA, the “pre-steady-state target cleavage rate” value was found to be 0.0296 ± 0.0066.

As for UCGACCUAGUGCUUGCAUAGUAUUUAGUAA, the “pre-steady-state target cleavage rate” value is 0.0195 ± 0.0046.

In the case of AGGAGGUACAGCUUGCAUAGUAUUUACAAA, the “pre-steady-state target cleavage rate” value is 0.00731 ± 0.0023.

As for UCCUGGAUGUGCUUGCUUAGUAUAUAGUUA, the “pre-steady-state target cleavage rate” value was found to be 0.00495 ± 0.0019.

Regarding UCCUCCAACAGCUUGCAUAGUAUAUAGUUA, the “pre-steady-state target cleavage rate” value came to 0.0355 ± 0.0078.

With UCGGACCUACAGCUUGCAUAGUAUUUAGUUA, the “pre-steady-state target cleavage rate” value worked out at 0.0616 ± 0.01.

For UCCUGCUACAGCUUGCUUAGUAUUUAGUUA, the “pre-steady-state target cleavage rate” value is 0.0337 ± 0.008.

For UCGAGGUACAGCUUGCAUAGUAUUUAGAAA, the “pre-steady-state target cleavage rate” value came to 0.00665 ± 0.0016.

Consider UCCUGCUACAGCUUUGCAUAGUAUUUAGUUA, for which the “pre-steady-state target cleavage rate” value worked out at 0.00988 ± 0.0021.
